Values marked as one replicate rest on one cluster of the flow cell; about a third of the high ones do not repeat.
These sequences were tested on ATP (assay: switch fluorescence ratio, 500 uM ATP over buffer (Cy3 cluster intensity, sum of 5 cycles each) (fold (ratio)); higher = stronger signal-on switching upon ATP binding; sequences stand for … in TCGTCGGCAGCGTCAGATGTGTATAAGAGACAGTTTTTTTTTTTTTTTTTTTTTTTTT…TC). Conditions: aptamer strand: ATP DNA aptamer (quencher-CACCTGGGGGAGTATTGCGGAGGAAGG + anchor), 100 nM annealed; ATP concentration: 500 uM; one replicate.
In short: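 For every switch-domain sequence, the fluorescence ratio is the mean of per-cluster values, each being summed target-cycle Cy3 intensity over summed buffer-cycle Cy3 intensity. Clusters outside 100-1000 RFU were excluded. On a modified Illumina MiSeq flow-cell, the Cy3-labelled switching-strand clusters were annealed to 100 nM quencher-labelled ATP aptamer, imaged in selection buffer and then after 15 min with 500 uM ATP at 22 °C. Five such cycles were run, with NaOH stripping and re-annealing between them.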
Sequence AACGGCAACG has a switch fluorescence ratio of 1.02.
In the case of AACGGCACCT, the switch fluorescence ratio is reported as 1.61.
Sequence AACGGCC has a switch fluorescence ratio of 1.05.
For AACGGCGCTT, the switch fluorescence ratio was 1.07.
AACGGCTATC gave a switch fluorescence ratio of 1.04.
Work on AACGGCTGCG yielded a switch fluorescence ratio of 0.934.
AACGGGCATT was tested, and the switch fluorescence ratio was 1.04.
Sequence AACGGGGACC has a switch fluorescence ratio of 1.09.
Sequence AACGGGGACG has a switch fluorescence ratio of 1.03.
In the case of AACGGGGATC, the switch fluorescence ratio is reported as 1.01.
In the case of AACGGGGTG, the switch fluorescence ratio is reported as 0.995.
AACGGGTACT was tested, and the switch fluorescence ratio was 1.14.
With AACGTACATC the switch fluorescence ratio was 1.65.
Work on AACGTACCTC yielded a switch fluorescence ratio of 1.39.
For AACGTAGTGG, the switch fluorescence ratio was 0.975.
AACGTATAAA gave a switch fluorescence ratio of 1.17.
Work on AACGTCTCTA yielded a switch fluorescence ratio of 0.991.
AACGTCTGAC showed a switch fluorescence ratio of 1.08.
AACGTCTGCC was tested, and the switch fluorescence ratio was 1.05.
For AACGTGTTGC, the switch fluorescence ratio was 1.02.
Work on AACGTTCTC yielded a switch fluorescence ratio of 1.06.
For AACGTTGACC, the switch fluorescence ratio was 1.2.
AACTAATAGT was tested, and the switch fluorescence ratio was 1.02.
Sequence AACTAATCTG has a switch fluorescence ratio of 1.02.
Work on AACTACCTTG yielded a switch fluorescence ratio of 1.06.
With AACTACTTAA the switch fluorescence ratio was 0.972.
AACTAGATGA showed a switch fluorescence ratio of 1.06.
AACTAGCATA was tested, and the switch fluorescence ratio was 1.08.
AACTATCTAT showed a switch fluorescence ratio of 1.05.
Sequence AACTATTTTT has a switch fluorescence ratio of 0.968.
With AACTCATCTT the switch fluorescence ratio was 1.03.
With AACTCATGAT the switch fluorescence ratio was 0.967.
In the case of AACTCGTAAG, the switch fluorescence ratio is reported as 0.991.
AACTCTCTGG showed a switch fluorescence ratio of 0.952.
AACTCTGCTG was tested, and the switch fluorescence ratio was 1.07.
AACTGAATT showed a switch fluorescence ratio of 0.997.
AACTGCACCG gave a switch fluorescence ratio of 1.15.
In the case of AACTGCAGAT, the switch fluorescence ratio is reported as 1.02.
AACTGCCCTG showed a switch fluorescence ratio of 1.09.
In the case of AACTGGCCCC, the switch fluorescence ratio is reported as 1.01.
With AACTGTACT the switch fluorescence ratio was 1.57.
AACTGTCGGA was tested, and the switch fluorescence ratio was 0.985.
For AACTGTGATC, the switch fluorescence ratio was 1.
AACTGTGCGA showed a switch fluorescence ratio of 1.05.
Work on AACTTAATAA yielded a switch fluorescence ratio of 1.09.
AACTTAGGAT gave a switch fluorescence ratio of 0.987.
AACTTCGGG was tested, and the switch fluorescence ratio was 1.02.
For AACTTGGTGC, the switch fluorescence ratio was 1.03.
AACTTTCGCA gave a switch fluorescence ratio of 1.1.
In the case of AAGAAAACC, the switch fluorescence ratio is reported as 1.82.
With AAGAAAATA the switch fluorescence ratio was 0.959.
For AAGAAGGGA, the switch fluorescence ratio was 0.997.
Sequence AAGAAGTATT has a switch fluorescence ratio of 0.993.
AAGAATTGGT gave a switch fluorescence ratio of 1.01.
Work on AAGACCCCAA yielded a switch fluorescence ratio of 1.03.
AAGACGTCGA was tested, and the switch fluorescence ratio was 1.03.
In the case of AAGACTCAAT, the switch fluorescence ratio is reported as 1.04.
AAGACTCGGA showed a switch fluorescence ratio of 0.947.
In the case of AAGACTTATA, the switch fluorescence ratio is reported as 1.03.
In the case of AAGAGAAAA, the switch fluorescence ratio is reported as 0.967.
AAGAGAACAC showed a switch fluorescence ratio of 1.04.
For AAGAGAGTGG, the switch fluorescence ratio was 0.989.
With AAGAGCTTGG the switch fluorescence ratio was 1.
Work on AAGAGCTTTT yielded a switch fluorescence ratio of 1.12.
For AAGAGGACTA, the switch fluorescence ratio was 0.986.
AAGAGGGAGC gave a switch fluorescence ratio of 0.998.
In the case of AAGAGTGTTC, the switch fluorescence ratio is reported as 0.991.
AAGATAAGTG was tested, and the switch fluorescence ratio was 0.963.
Work on AAGATAATG yielded a switch fluorescence ratio of 0.957.
For AAGATCGTAT, the switch fluorescence ratio was 0.924.
With AAGATCTCA the switch fluorescence ratio was 0.966.
AAGATGCACG gave a switch fluorescence ratio of 0.951.
In the case of AAGATTCGTT, the switch fluorescence ratio is reported as 0.984.
AAGATTGTGC gave a switch fluorescence ratio of 1.
For AAGCAAACGT, the switch fluorescence ratio was 1.13.
Work on AAGCAAATTT yielded a switch fluorescence ratio of 1.07.
Work on AAGCACACAG yielded a switch fluorescence ratio of 1.08.
Sequence AAGCACATT has a switch fluorescence ratio of 1.11.
Sequence AAGCACGGGT has a switch fluorescence ratio of 1.02.
AAGCAGGAAC gave a switch fluorescence ratio of 1.14.
AAGCAGGG was tested, and the switch fluorescence ratio was 1.
AAGCATAAGT gave a switch fluorescence ratio of 1.02.
For AAGCATTCA, the switch fluorescence ratio was 1.04.
Work on AAGCATTCCG yielded a switch fluorescence ratio of 1.09.
For AAGCCACTGT, the switch fluorescence ratio was 1.1.
AAGCCAGGAG gave a switch fluorescence ratio of 1.14.
AAGCCGTCGA showed a switch fluorescence ratio of 1.03.
With AAGCCTATCT the switch fluorescence ratio was 1.
Sequence AAGCCTCTAT has a switch fluorescence ratio of 0.967.
AAGCGAGCAA was tested, and the switch fluorescence ratio was 0.861.
Sequence AAGCGCAACG has a switch fluorescence ratio of 1.05.
AAGCGCAGTT gave a switch fluorescence ratio of 1.01.
For AAGCGCGAAT, the switch fluorescence ratio was 1.01.
For AAGCGGACGT, the switch fluorescence ratio was 0.99.
In the case of AAGCGGCGAC, the switch fluorescence ratio is reported as 1.07.
Sequence AAGCGGGACC has a switch fluorescence ratio of 1.02.
AAGCGGTAGC was tested, and the switch fluorescence ratio was 0.99.
AAGCGTAGGA was tested, and the switch fluorescence ratio was 1.01.
Sequence AAGCTAATCA has a switch fluorescence ratio of 0.99.
AAGCTAGAAC gave a switch fluorescence ratio of 1.01.
For AAGCTCAGGG, the switch fluorescence ratio was 1.05.
With AAGCTCCAGA the switch fluorescence ratio was 1.01.
Work on AAGCTGCCTT yielded a switch fluorescence ratio of 1.06.
For AAGCTTAAGT, the switch fluorescence ratio was 0.988.
With AAGCTTTATA the switch fluorescence ratio was 1.03.
In the case of AAGGACAGCA, the switch fluorescence ratio is reported as 1.04.
With AAGGACTGGT the switch fluorescence ratio was 0.98.
Work on AAGGACTTTA yielded a switch fluorescence ratio of 1.01.
With AAGGACTTTT the switch fluorescence ratio was 1.01.
AAGGAGAGAC gave a switch fluorescence ratio of 1.01.
For AAGGAGAGCG, the switch fluorescence ratio was 1.05.
Work on AAGGAGATTG yielded a switch fluorescence ratio of 0.992.
With AAGGAGGCGG the switch fluorescence ratio was 1.04.
With AAGGAGTAAA the switch fluorescence ratio was 0.979.
Sequence AAGGATAAAA has a switch fluorescence ratio of 0.973.
With AAGGATCAGC the switch fluorescence ratio was 1.
With AAGGATTCTT the switch fluorescence ratio was 0.985.
Sequence AAGGCAACAG has a switch fluorescence ratio of 1.1.
In the case of AAGGCACTTC, the switch fluorescence ratio is reported as 1.14.
AAGGCAGAGA was tested, and the switch fluorescence ratio was 1.07.
Work on AAGGCCAATT yielded a switch fluorescence ratio of 0.977.
With AAGGCCCCAT the switch fluorescence ratio was 1.02.
Work on AAGGCGCTAT yielded a switch fluorescence ratio of 1.01.
In the case of AAGGCGGAAG, the switch fluorescence ratio is reported as 0.991.
AAGGCGGCTG gave a switch fluorescence ratio of 0.984.
With AAGGCTAACC the switch fluorescence ratio was 0.976.
AAGGCTAAGT was tested, and the switch fluorescence ratio was 1.
AAGGCTGTCG showed a switch fluorescence ratio of 0.968.
For AAGGCTGTTA, the switch fluorescence ratio was 0.981.
AAGGCTTTAG showed a switch fluorescence ratio of 1.06.
For AAGGGAGTTT, the switch fluorescence ratio was 1.03.
AAGGGATAA gave a switch fluorescence ratio of 0.998.
AAGGGCCCGA gave a switch fluorescence ratio of 1.01.
AAGGGCGCGC was tested, and the switch fluorescence ratio was 1.13.
With AAGGGGTCGA the switch fluorescence ratio was 1.05.
Sequence AAGGGGTGCT has a switch fluorescence ratio of 0.981.
AAGGGTAATT gave a switch fluorescence ratio of 1.
Sequence AAGGGTAGCT has a switch fluorescence ratio of 1.01.
AAGGGTCACT was tested, and the switch fluorescence ratio was 0.977.
In the case of AAGGGTTCTA, the switch fluorescence ratio is reported as 1.
With AAGGTAAACC the switch fluorescence ratio was 1.
With AAGGTATAGG the switch fluorescence ratio was 0.988.
Sequence AAGGTGAAGC has a switch fluorescence ratio of 1.04.
In the case of AAGGTGAGGC, the switch fluorescence ratio is reported as 0.842.
With AAGGTGCTCA the switch fluorescence ratio was 1.09.
With AAGGTGGCTC the switch fluorescence ratio was 0.99.
For AAGGTGGTGC, the switch fluorescence ratio was 1.12.
AAGGTGTCTA gave a switch fluorescence ratio of 0.961.
Sequence AAGGTTGCTA has a switch fluorescence ratio of 3.18.
For AAGGTTTGGA, the switch fluorescence ratio was 0.972.
In the case of AAGTAAAGTA, the switch fluorescence ratio is reported as 0.988.
With AAGTAAATAA the switch fluorescence ratio was 1.04.
With AAGTAAATAG the switch fluorescence ratio was 2.08.
AAGTACGAGA was tested, and the switch fluorescence ratio was 1.26.
Work on AAGTAGATCG yielded a switch fluorescence ratio of 0.976.
In the case of AAGTAGCTCT, the switch fluorescence ratio is reported as 1.01.
With AAGTATCCCT the switch fluorescence ratio was 1.01.
In the case of AAGTATGTT, the switch fluorescence ratio is reported as 0.988.
AAGTATTGTG showed a switch fluorescence ratio of 0.993.
Sequence AAGTCAAGGC has a switch fluorescence ratio of 1.12.
With AAGTCAGGCC the switch fluorescence ratio was 0.995.
Sequence AAGTCATTGG has a switch fluorescence ratio of 0.977.
For AAGTCCATGG, the switch fluorescence ratio was 0.998.
AAGTCGTAAA was tested, and the switch fluorescence ratio was 1.03.
With AAGTCGTGAA the switch fluorescence ratio was 1.
In the case of AAGTCGTGTG, the switch fluorescence ratio is reported as 0.974.
AAGTCGTTAA showed a switch fluorescence ratio of 1.02.
AAGTGAGGTC was tested, and the switch fluorescence ratio was 0.981.
With AAGTGCCCAC the switch fluorescence ratio was 1.01.
In the case of AAGTGCCCTA, the switch fluorescence ratio is reported as 0.975.
Work on AAGTGGACGA yielded a switch fluorescence ratio of 0.986.
For AAGTGGAGCT, the switch fluorescence ratio was 1.02.
AAGTGTCACG showed a switch fluorescence ratio of 0.999.
In the case of AAGTTAACCG, the switch fluorescence ratio is reported as 1.01.
Work on AAGTTATGTC yielded a switch fluorescence ratio of 1.12.
For AAGTTATTCG, the switch fluorescence ratio was 0.997.
AAGTTCAGA was tested, and the switch fluorescence ratio was 0.987.
AAGTTCAGT was tested, and the switch fluorescence ratio was 1.02.
For AAGTTCTCAG, the switch fluorescence ratio was 1.02.
AAGTTCTTCA gave a switch fluorescence ratio of 1.05.
Work on AAGTTCTTTG yielded a switch fluorescence ratio of 0.982.
For AAGTTGAACT, the switch fluorescence ratio was 0.939.
Work on AAGTTGTGTG yielded a switch fluorescence ratio of 1.01.
Work on AATAAAGCGG yielded a switch fluorescence ratio of 1.02.
AATAAAGGAC showed a switch fluorescence ratio of 0.968.
In the case of AATAAAGTAT, the switch fluorescence ratio is reported as 0.972.
Sequence AATAACGAAC has a switch fluorescence ratio of 1.29.
Work on AATAACGCGG yielded a switch fluorescence ratio of 0.964.
In the case of AATAAGGCAG, the switch fluorescence ratio is reported as 0.984.
AATAAGTCAT was tested, and the switch fluorescence ratio was 1.04.
AATAAGTCTG showed a switch fluorescence ratio of 0.972.
AATAATTGTT showed a switch fluorescence ratio of 0.991.
AATACCGACC was tested, and the switch fluorescence ratio was 2.31.
With AATACGCACG the switch fluorescence ratio was 1.64.
AATACTAAGT gave a switch fluorescence ratio of 0.972.
In the case of AATACTCAGC, the switch fluorescence ratio is reported as 1.08.
Sequence AATACTGAGT has a switch fluorescence ratio of 1.02.
For AATACTTAAG, the switch fluorescence ratio was 0.983.
For AATAGAGAGG, the switch fluorescence ratio was 0.976.
AATAGATACT gave a switch fluorescence ratio of 0.978.
AATAGCACT gave a switch fluorescence ratio of 1.03.

— the supplement of paper PMC10126150
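Also: ATP exposure 15 min at 22 °C before imaging.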
